The text below walks through data of PubChem BioAssay AID1745853 (National Center for Advancing Translational Sciences (NCATS), 2022).

The structures appear in SMILES notation. The list shows a part of the results. Further columns of the screen follow, without active or inactive calls.

What all share (experiment): Primary Screen for Target Class Profiling of Small Molecule Inhibitors of Methyltransferases
Test [1] addresses Glycine N-methyltransferase (Homo sapiens) (UniProt Q14749). The settings on record: purified enzyme, MTase-Glo SAH luminescence; measured here: GNMT inhibition; at 40 µM; stronger effect = lower value. The method in brief: (§1)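 Each enzyme was assayed with SAM and its substrate. SAH formation detected by MTase-Glo luminescence; single-point 40 uM screen[…].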
Test [2] addresses Guanidinoacetate N-methyltransferase (Homo sapiens) (UniProt Q14353). Particulars: purified enzyme, MTase-Glo SAH luminescence; measured here: GAMT inhibition; at 40 µM; stronger effect = lower value. An outline of the steps:
as §1

The target in test [3] is Histamine N-methyltransferase (Homo sapiens) (UniProt P50135). Particulars: purified enzyme, MTase-Glo SAH luminescence; measured here: HNMT inhibition; at 40 µM; stronger effect = lower value. The method in brief: as §1
In test [4] the target is Nicotinamide N-methyltransferase (Homo sapiens) (UniProt P40261). Particulars: purified enzyme, MTase-Glo SAH luminescence; measured here: NNMT inhibition; at 40 µM; stronger effect = lower value. An outline of the steps:
as §1

In test [5] the target is Phenylethanolamine N-methyltransferase (Homo sapiens) (UniProt P11086). Particulars: purified enzyme, MTase-Glo SAH luminescence; measured here: PNMT inhibition; at 40 µM; stronger effect = lower value. The method in brief: as §1
% is scaled to controls: 0 for no effect and ±100 for the full control effect.

Take `CC(C)(C)NC(=O)N1CCC(c2nnc3n2C(C(=O)NCC2CCCCC2)CC3)CC1` (configuration not stated): the activity change, negative = inhibition in test [1] was -3.93%; in test [2], -3.92%; in test [3], -2.19%; in test [4], -9.33%; in test [5] it was -5.21%.
Take `CC1CCC(NC(=O)C2(C)Cn3c(cc4occc43)C(=O)N2C2CCCCCC2)CC1` (configuration not stated): the activity change, negative = inhibition in test [1] was -3.84%; in test [2], 6.93%; in test [3], 0.037%; in test [4], -4.76%; in test [5] it was -1.62%.
The matching figures for `Cc1cc(CN2CCC3(CC2)CCN(Cc2cscn2)CC3CO)on1` (configuration not stated): -0.231%, 2.11%, 2.06%, -2.79% and 0.206%.
On to `CC1=CCC2C(C)(C)CCC[C@]2(C)[C@@]12CC[C@](C)(CC(=O)O)O2` (some centres not stated), for which the activity change, negative = inhibition in test [1] is 0%; in test [2], -4.71%; in test [3] it was 6.04%; in test [4] it was -24.5%; in test [5], -17.5%.
As for `OCc1ccc(-c2nn(Cc3ccccc3)c3ccccc23)o1`, the activity change, negative = inhibition in test [1] was -45.8%; in test [2] it was 10.7%; in test [3], 1.57%; in test [4], -7.71%; in test [5] it was 3.42%.
The matching figures for `CCOC(=O)CNC(=O)N1Cc2c(sc3c2CCCC3)-n2cccc2C1C(C)C` (configuration not stated): -6.85%, -3.79%, -3.27%, -15.4% and -5.29%.
The matching figures for `CCc1cc2c(cc3n2CC(C)(C(=O)NC2CCCCCC2)N(CCOC)C3=O)s1` (configuration not stated): 0.814%, 4.33%, 0.018%, -8.17% and -1.32%.
As for `Cc1ccc(CNC(=O)C2(C)Cn3nc(C(=O)NCc4ccc(C)o4)cc3C(=O)N2C)cc1` (configuration not stated), the activity change, negative = inhibition in test [1] was found to be 3.86%; in test [2], 0%; in test [3], 4.01%; in test [4], 3.66%; in test [5], 2.54%.
`O=S(=O)(NC1CCNCC1)c1cc(S(=O)(=O)c2ccccc2)ccc1C(F)(F)F`: the activity change, negative = inhibition was 7.93% in test [1]; 8.39% in test [2]; 10.6% in test [3]; -7.14% in test [4]; 2.97% in test [5].
The like results for `Cc1ccc(C(=O)C(C)n2nc3n(C(C)C)c(=O)c4ccc(C(=O)NC(C)C)cc4n3c2=O)cc1C` (configuration not stated) were, in that order, 0.32%, 3.19%, 5.42%, -10.9% and -1.53%.
The like results for `CC1(C(=O)NC2CCCCC2)Cn2c(ccc2-c2ccco2)C(=O)N1Cc1ccco1` (configuration not stated) were, in that order, -18.4%, -8.9%, 6.03%, -6.63% and -6.9%.
`Cn1c(SCC(=O)N2CCC[C@H]2C(=O)Nc2ccccc2-c2ccccc2)nc2ccccc21`: the activity change, negative = inhibition in test [1] is -3.84%; in test [2], -3.25%; in test [3], 5.7%; in test [4], -23.5%; in test [5], -6.06%.
With `CC(=O)OC1C(=O)C2(C)C(O)CC3OCC3(OC(C)=O)C2C(OC(=O)c2ccccc2)C2(O)CC(OC(=O)C(O)C(NC(=O)c3ccccc3)c3ccccc3)C(C)=C1C2(C)C` (configuration not stated), the results for the activity change, negative = inhibition in test [1] and in test [3] were 1.13% and 3.17%, respectively.
Take `CC1CCCN1C(=O)c1cc(-c2ccc(C(F)(F)F)cc2)nc2c1cnn2C` (configuration not stated): the activity change, negative = inhibition in test [1] was -8.08%; in test [2], -12.1%; in test [3], -4.29%; in test [4], -26.8%; in test [5], -12.1%.
Consider `CCc1ccccc1NC(=O)CSc1nnc2n(Cc3ccc(F)cc3)c(=O)c3ccccc3n12`, for which the activity change, negative = inhibition was 3.69% in test [1]; 0.322% in test [2]; 6.36% in test [3]; -1.43% in test [4]; 3.14% in test [5].
The matching figures for `CC(C)(C)c1nc(C(=O)NCc2cccnc2)n2ccncc12`: -11.4%, -14.1%, -7.49%, -19.4% and -12.4%.
The matching figures for `Cc1ccc(S(=O)(=O)c2nnn3c2nc(NC(C)c2ccccc2)c2ccccc23)cc1` (configuration not stated): -3.34%, 4.38%, -0.098%, 0.225% and -5.16%.
The matching figures for `CN(C(=O)Cn1nc2n(C)c(=O)c3ccc(C(=O)NC4CCCCC4)cc3n2c1=O)c1ccc(F)cc1`: 5.41%, 0.837%, 4.43%, 3.61% and 3.31%.
On to `CC1CCC(NC(=O)C2(C)Cn3c(cc4sccc43)C(=O)N2Cc2ccco2)CC1` (configuration not stated), for which the activity change, negative = inhibition is 0.458% in test [1]; 0% in test [2]; -0.56% in test [3]; -7.19% in test [4]; -1.79% in test [5].
In the case of `CN1C(=O)c2cc(C(=O)NCc3cccc(Br)c3)nn2CC1(C)C(=O)NC1CCCC1` (configuration not stated), the activity change, negative = inhibition was 0.258% in test [1]; 3.31% in test [2]; -1.7% in test [3]; -0.564% in test [4]; -2.57% in test [5].
The matching figures for `Cc1ccc(Cn2c(=O)c3ccccc3n3c(=O)n(CC(=O)Nc4ccc(C)c(C)c4)nc23)cc1`: -3.16%, -1.25%, 1.12%, -6.73% and -0.552%.
With `Cc1ccc(Cn2c(=O)c3ccccc3n3c(SCC(=O)Nc4ccccc4C)nnc23)cc1`, the activity change, negative = inhibition stood at 4.37% in test [1]; 0% in test [2]; 10.3% in test [3]; 10.2% in test [4]; 8.54% in test [5].
The matching figures for `Cn1nc2n(c1=O)CCC(NS(=O)(=O)c1cccnc1)CC2` (configuration not stated): -0.668%, -1.03%, -0.203%, 0.112% and -10.5%.
The like results for `COc1ccc(CN2C(=O)c3cc4occc4n3CC2(C)C(=O)NC2CCCCCC2)cc1` (configuration not stated) were, in that order, -1.83%, 0%, 0.373%, -10.2% and -3.39%.
The matching figures for `CN(Cc1ccccc1)c1ncnc2c1CCN(C(=O)[C@@H](N)CO)CC2`: -7%, -6.9%, -2.59%, -10.4% and -7.67%.
For `CC1(C(=O)NC2CCCCCC2)Cn2c(cc3occc32)C(=O)N1CCN1CCCCCC1` (configuration not stated), the activity change, negative = inhibition is -1.53% in test [1]; 3.31% in test [2]; -7.54% in test [3]; -3.43% in test [4]; -2.54% in test [5].
The like results for `Cc1ccc(N2C(=O)c3cc4occc4n3CC2(C)C(=O)NC2CCC(C)CC2)cc1` (configuration not stated) were, in that order, -1.17%, 0%, 4.45%, 2.97% and 0.426%.
The like results for `Cc1ccc(CN2CCNCC2)cc1NC(=O)CNc1ccc(F)c(F)c1` were, in that order, 1.54%, 5.02%, -0.634%, -9.39% and -8.65%.
`CCCn1c(=O)c2ccccc2n2c(SCc3cccc(F)c3)nnc12`: the activity change, negative = inhibition in test [1] is -17.1%; in test [2] it was 1.01%; in test [3], -0.232%; in test [4], -13.1%; in test [5], -2.36%.
The like results for `O=C(CCc1nnc2n(CCc3ccccc3)c(=O)c3ccccc3n12)N1CCN(c2ncccn2)CC1` were, in that order, -2.64%, 2.91%, 0.136%, 2.35% and -6.02%.
